Experimental data as given in PubChem BioAssay AID445 (National Center for Advancing Translational Sciences (NCATS), 2006).
In all, about 110,000 compounds went through this assay and about 40 (0.04%) were called active. The shares of active, inactive and inconclusive entries below differ from those in the screen. The call rests on the fitted dose curve; in most records, active means well fitted curve in the direction sought with a large enough effect in the signal ratio (not every such curve was filed as active); inconclusive means small, poorly fitted or top-dose-only effect, or a change in a side signal; inactive means flat fitted curve, though single readings scatter; the % refers to the signal ratio. Where the call is inconclusive, the potency comes from a doubtful curve fit.

Test: IkB Signaling;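 on IkBa stabilization activation: 0% = basal untreated cells and 100% = reference inhibitor full response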
Conditions: ABC-DLBCL IkBa-CBG/CBR dual luciferase ratio (green luciferase fused to IkBa over red control in OCI-Ly3 lymphoma cells), 4 h; IkBa stabilization activation: at 57.1 µM (top of the series), scaled: untreated 0%, proteasome inhibitor 100% unless noted
Method in brief: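 Curves were fitted separately to fusion (green), unfused (red) and ratio luminescence, then classed by r2, magnitude and activity. Cells: OCI-Ly3, 4 h compound plus doxycycline at 37C; 10 uM MG-132 defined full response.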
Potency means the concentration at half of the fitted maximal effect.

Q: For `Clc1ccc([C@H](Cn2ccnc2)OCc2c(Cl)cccc2Cl)c(Cl)c1`, which IkBa stabilization activation is on record?
A: inactive

Q: With `Cc1cccc(Cn2c(SCc3ccc(C(=O)NCc4ccccc4F)cc3)nc3ccncc32)c1` as the molecule, how does the IkBa stabilization activation read?
A: inconclusive: 0.23% [signal inhibitor]

Q: For `Cc1cc(N2CCN(S(=O)(=O)c3ccc(Cl)cc3)CC2)c2ccccc2n1`, which IkBa stabilization activation is on record?
A: inconclusive: -6.56% [signal inhibitor]

Q: With `Cc1c(-c2cccc(NC(=O)Nc3ccc(Cl)cc3)c2)nc2ncccn12` as the molecule, how does the IkBa stabilization activation read?
A: inconclusive: -0.495% [signal inhibitor]

Q: With `CC1CCCCN1C(=O)Cn1ncc2c3ccccc3n(Cc3ccccc3F)c2c1=O` (stereo unspecified) as the molecule, how does the IkBa stabilization activation read?
A: inconclusive: 0.549% [signal inhibitor]

Q: With `COc1ccc(CN(C(=O)c2cc3ccccc3oc2=O)C2CCS(=O)(=O)C2)cc1OC` (stereo unspecified) as the molecule, how does the IkBa stabilization activation read?
A: inconclusive: 12.4% [signal inhibitor]

Q: For `Cc1ccc(C(=O)COC(=O)C(Cc2c[nH]c3ccccc23)NC(=O)c2ccc(C(C)(C)C)cc2)cc1` (stereo unspecified), which IkBa stabilization activation is on record?
A: inconclusive: 2.19% [signal inhibitor]

Q: With `Cc1cc(C)cc(NC(=O)CSc2nc(=O)n(Cc3ccccn3)c3c2CCC3)c1` as the molecule, how does the IkBa stabilization activation read?
A: inconclusive: 2.3% [signal inhibitor]

Q: With `Cc1cccc(Oc2nc3c(c(=O)n(C)c(=O)n3C)n2Cc2ccccc2)c1C` as the molecule, how does the IkBa stabilization activation read?
A: inconclusive: -0.885% [signal inhibitor]

Q: For `COc1ccc(-n2cc(-c3ccccc3)c3c(NC4CCCC4)ncnc32)cc1`, which IkBa stabilization activation is on record?
A: inconclusive: 4.42% [signal inhibitor]

Q: For `CC(C)CC(=O)Nc1cc(-c2ccccc2F)nn1-c1ccccc1`, which IkBa stabilization activation is on record?
A: inactive

Q: With `O=C(Nc1ccc2c(c1)OCO2)c1cnn2c(C(F)(F)F)cc(-c3ccco3)nc12` as the molecule, how does the IkBa stabilization activation read?
A: inactive

Q: For `O=C(Nc1nc(-c2ccccc2)ns1)c1cccs1`, which IkBa stabilization activation is on record?
A: inactive

Q: For `COc1ccc2[nH]cc(CCNc3ncnc4ccc(-c5cccc(C#N)c5)cc34)c2c1`, which IkBa stabilization activation is on record?
A: inactive: -6.01% [at 11.4 µM, scaled: untreated 0%, proteasome inhibitor 100%]

Q: With `Cc1ccc2c(c1)c1c(c(=O)n(-c3ccccc3)c(=O)n1CC(=O)c1ccc(F)cc1)n2C` as the molecule, how does the IkBa stabilization activation read?
A: inactive

Q: Which IkBa stabilization activation does the source give for `CCc1cccc(NC(=O)Cn2c(=O)n(-c3cccc(Cl)c3)c(=O)c3c2c2cc(C)ccc2n3C)c1` here?
A: inconclusive: 1.87% [signal inhibitor]

Q: For `Cn1c(SCC(=O)N2CCCc3ccccc32)ncc(C(=O)Nc2ccccc2)c1=O`, which IkBa stabilization activation is on record?
A: inconclusive: 18% [signal inhibitor]

Q: With `CN1CCCN(C(=O)c2cc(=O)[nH]c3ccccc23)c2nc3ccccc3nc21` as the molecule, how does the IkBa stabilization activation read?
A: inactive

Q: With `Cc1cc(C)cc(NC(=O)c2cnc3sc(N4CCCC4)nn3c2=O)c1` as the molecule, how does the IkBa stabilization activation read?
A: inactive

Q: Which IkBa stabilization activation does the source give for `CCc1ccccc1NC(=O)c1nnn(Cc2ccc(Cl)cc2)c1N` here?
A: inactive

Q: For `COCCNC(=O)CSc1nc(-c2ccccc2)[nH]c1-c1ccc(OC)cc1`, which IkBa stabilization activation is on record?
A: inconclusive: 4.75% [signal inhibitor]

Q: With `CCOc1ccc(NC(=O)C2CCCN(S(=O)(=O)c3c(C)noc3/C=C/N(C)C)C2)cc1` (stereo unspecified) as the molecule, how does the IkBa stabilization activation read?
A: inconclusive: 0.819% [signal inhibitor]

Q: Which IkBa stabilization activation does the source give for `CCOC(=O)C1=C(CN2CCN(c3ccc(OC)cc3)CC2)NC(=O)NC1c1ccc(Cl)cc1` (stereo unspecified) here?
A: inconclusive: -1.69% [signal inhibitor]

Q: Which IkBa stabilization activation does the source give for `Cc1cc(CN2CCN(c3cccc(C)c3C)CC2)cs1` here?
A: inconclusive: -1.29% [signal inhibitor]

Q: For `Cc1ccc(-c2nc(CSc3nncn4c3cc3occc34)c(C)o2)cc1`, which IkBa stabilization activation is on record?
A: inconclusive: 0.796% [signal inhibitor]

Q: Which IkBa stabilization activation does the source give for `Cc1ccc(Cn2cc(C(=O)c3ccc4c(c3)OCO4)c(=O)c3cc(C)ccc32)cc1` here?
A: inconclusive: 0.732% [signal inhibitor]

Q: With `COc1ccc(C(=O)Nc2nnc(C(C)C)s2)cc1OC` as the molecule, how does the IkBa stabilization activation read?
A: inactive

Q: Which Potency does the source give for `O=C(CSc1nnc(-c2ccccc2)o1)Nc1ccccc1F` here?
A: inconclusive: 15.8 µM [signal inhibitor, partial curve]

Q: With `CCc1c(C)c2cc(Cl)c(O)c(CN(CC)CC)c2oc1=O` as the molecule, how does the IkBa stabilization activation read?
A: inactive

Q: For `Cc1ccc(CNC(=O)c2cnn(-c3cccc(C)c3)c2C2CCN(C(=O)OC(C)(C)C)CC2)cc1`, which IkBa stabilization activation is on record?
A: inconclusive: -4.22% [signal inhibitor]

Q: Which IkBa stabilization activation does the source give for `CC(=O)c1ccc(NS(=O)(=O)c2ccc(-c3cnc(C4CC4)o3)cc2)cc1` here?
A: inconclusive: 2.8% [signal inhibitor]

Q: For `CCC1CCCCN1S(=O)(=O)c1cc(C(=O)Nc2ccc(C)c(F)c2)ccc1F` (stereo unspecified), which IkBa stabilization activation is on record?
A: inconclusive: 0.98% [signal inhibitor]

Q: Which IkBa stabilization activation does the source give for `Cc1ccc(C(=O)N2CCN(c3ccccc3)CC2)cc1S(=O)(=O)N1CCCC1` here?
A: inconclusive: 3.03% [signal inhibitor]

Q: With `O=C(SCc1cccc2ccccc12)c1ccc(Cl)cc1` as the molecule, how does the IkBa stabilization activation read?
A: inactive: -0.0429% [at 11.4 µM, scaled: untreated 0%, proteasome inhibitor 100%]

Q: With `CCOC(=O)N1CCN(C(=O)Cn2ncc3c4ccccc4n(Cc4ccc(F)cc4)c3c2=O)CC1` as the molecule, how does the IkBa stabilization activation read?
A: inconclusive: 0.758% [signal inhibitor]

Q: For `Cc1noc(C)c1S(=O)(=O)NCCc1csc2nc(-c3ccc(Cl)cc3)nn12`, which IkBa stabilization activation is on record?
A: inconclusive: 1.97% [signal inhibitor]

Q: With `COc1ccccc1-c1nnc(C2CCN(S(=O)(=O)c3ccc(F)c(C)c3)CC2)o1` as the molecule, how does the IkBa stabilization activation read?
A: inconclusive: 4.19% [signal inhibitor]

Q: For `O=C(COc1ccc(F)cc1)Nc1ccc(Cl)c(-c2nc3ccccc3[nH]2)c1`, which IkBa stabilization activation is on record?
A: inconclusive: -0.436% [signal inhibitor]

Q: With `Cc1ccc(Nc2nc(N)nc(CSc3nccn3C)n2)cc1` as the molecule, how does the IkBa stabilization activation read?
A: inactive

Q: With `Cc1nc(-c2ccc(F)cc2)sc1CCNC(=O)c1ccc(C(C)(C)C)cc1` as the molecule, how does the IkBa stabilization activation read?
A: inconclusive: -0.279% [signal inhibitor]

Q: For `Cc1ccc(Cl)cc1NS(=O)(=O)c1ccc(N2CCCCS2(=O)=O)cc1`, which IkBa stabilization activation is on record?
A: inconclusive: 1.91% [signal inhibitor]

Q: For `Cc1ccc(C(=O)NCC(c2cccnc2)N2CCc3ccccc3C2)cc1C` (stereo unspecified), which IkBa stabilization activation is on record?
A: inconclusive: 0.84% [signal inhibitor]

Q: For `CCOc1ccc(N2CC(c3nc4ccccc4n3CCOc3ccccc3)CC2=O)cc1` (stereo unspecified), which IkBa stabilization activation is on record?
A: inconclusive: 2.58% [signal inhibitor]

Q: For `COC(=O)c1cc(OC)c(OC)cc1NC(=O)C1CCC(=O)N1S(=O)(=O)c1ccc(C)cc1` (stereo unspecified), which IkBa stabilization activation is on record?
A: inactive

Q: Which IkBa stabilization activation does the source give for `CCc1nc(NCc2ccccn2)c2oc3ccccc3c2n1` here?
A: inconclusive: 3.43% [signal inhibitor]

Q: Which IkBa stabilization activation does the source give for `Cc1nn(-c2ccccc2)c2sc(C(=O)Nc3cccc(Br)c3)cc12` here?
A: inconclusive: 5.5% [signal inhibitor]

Q: With `CCC1CCCCN1C(=O)c1cc(-c2ccc(Cl)c(Cl)c2)on1` (stereo unspecified) as the molecule, how does the IkBa stabilization activation read?
A: inconclusive: 9.45% [signal inhibitor]

Q: Which Potency does the source give for `Cc1nnc(Sc2nc3ccccc3o2)c2ccccc12` here?
A: inconclusive: 31.6 µM [rising, partial curve]

Q: With `CCSc1ncnc2c1oc1ccccc12` as the molecule, how does the IkBa stabilization activation read?
A: inactive

Q: For `Cc1cc(=O)n2nc(-c3ccccc3)sc2n1`, which Potency is on record?
A: inconclusive: 20 µM [signal inhibitor, partial curve]

Q: Which IkBa stabilization activation does the source give for `Cc1ccccc1NCc1nc2ccccc2n1CCOc1ccccc1` here?
A: inconclusive: -0.987% [signal inhibitor]

Q: With `Cc1nnc(C)n1/N=C/c1cccc(Oc2ccccc2)c1` as the molecule, how does the IkBa stabilization activation read?
A: inactive

Q: With `CCN1C(=O)c2ccccc2Sc2ccc(NC(=O)c3ccc(C#N)cc3)cc21` as the molecule, how does the IkBa stabilization activation read?
A: inconclusive: -0.901% [signal inhibitor]

Q: Which IkBa stabilization activation does the source give for `Cc1ccc2nc(NC(=O)CN3CCOCC3)sc2c1` here?
A: inconclusive: 1.68% [signal inhibitor]

Q: Which Potency does the source give for `Cc1nc2sc(C(c3cccs3)N3CCN(c4ccccc4)CC3)c(O)n2n1` (stereo unspecified) here?
A: inconclusive: 25.1 µM [rising, partial curve]

Q: For `COc1ccc(C(=O)Nc2nc3c(s2)Cc2cc(OC)ccc2-3)cc1`, which IkBa stabilization activation is on record?
A: inconclusive: 9.1% [signal inhibitor]

Q: With `COc1ccc(NC(=O)CSc2oc(-c3ccco3)nc2S(=O)(=O)c2ccccc2)c(OC)c1` as the molecule, how does the IkBa stabilization activation read?
A: inconclusive: 7.81% [signal inhibitor]

Q: Which IkBa stabilization activation does the source give for `CCOC(=O)CSc1nc2c(sc3ccccc32)c(=O)n1Cc1ccc(OC)cc1` here?
A: inactive

Q: Which IkBa stabilization activation does the source give for `COC1=C(OC)C(=O)c2ccccc2C1=O` here?
A: inactive

Q: For `Nc1c(C(=O)c2ccccc2)sc(Nc2ccc(Cl)c(Cl)c2)c1C(=O)Nc1ccccc1`, which IkBa stabilization activation is on record?
A: inconclusive: -0.0776% [signal inhibitor]

Q: Which IkBa stabilization activation does the source give for `Cc1cccc(NC(=O)c2sc(-n3nc(C)c(CCC(C)C)c3C)nc2C)c1` here?
A: inconclusive: -0.207% [signal inhibitor]

Q: Which IkBa stabilization activation does the source give for `COC(=O)c1[nH]c2c(c1C)C(=O)CC(c1ccccc1)C2` (stereo unspecified) here?
A: inactive

Q: With `CCn1c2ccccc2c2nnc(SCC(=O)NC(C(=O)OC)C(C)C)nc21` (stereo unspecified) as the molecule, how does the IkBa stabilization activation read?
A: inactive

Q: Which IkBa stabilization activation does the source give for `N#Cc1ccccc1OCC(=O)N1CCN(c2ccccc2F)CC1` here?
A: inconclusive: 4.72% [signal inhibitor]

Q: For `COc1ccc(C(=O)N2CCC3(CCCN(Cc4nccs4)C3)CC2)cc1`, which IkBa stabilization activation is on record?
A: inactive: -2.46% [at 11.4 µM, scaled: untreated 0%, proteasome inhibitor 100%]

Q: For `FC(F)(F)c1cc(CO[C@@H]2CCCN[C@H]2c2ccccc2)cc(C(F)(F)F)c1`, which IkBa stabilization activation is on record?
A: inactive

Q: With `COc1ccc(-c2cn3c(n2)sc2cc(C(=O)Nc4ccc(C)cc4C)ccc23)cc1` as the molecule, how does the IkBa stabilization activation read?
A: inactive

Q: For `O=C1CSC(=S)N1Cc1cccnc1`, which IkBa stabilization activation is on record?
A: inconclusive: -1.94% [signal inhibitor]

Q: For `CCCCn1c(SCC(=O)N2CCN(c3ccccc3)CC2)nc2ccsc2c1=O`, which IkBa stabilization activation is on record?
A: inconclusive: -2.22% [signal inhibitor]

Q: Which IkBa stabilization activation does the source give for `COc1ccc(-c2cc(C(F)(F)F)n3nc(C(=O)N4CCCCC4)cc3n2)cc1` here?
A: inactive

Q: For `COc1ccc(-c2cc3ccc(O)c(CN4CCCC4)c3oc2=O)cc1OC`, which IkBa stabilization activation is on record?
A: inactive
